45 sequences from the supplement of paper PMC11417369 can be followed below.

± gives the standard deviation of the averaged measurements. The list shows a part of the results.

The subject of the assay is PfAP2-I AP2 domain 3 (GST-tagged). The experiment in a line: gcPBM binding intensity (ln(normalized median fluorescence intensity)); higher = stronger DNA binding. In outline:
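An Agilent 4 × 180k array of primer-extended double-stranded 36-bp intergenic genomic probes, with negative controls, was incubated for 1 h with GST-tagged P. falciparum DNA-binding domains expressed in E. coli. Alexa488 anti-GST antibody detected bound protein, scanned at 488 nm. Binding intensity is the highest Masliner-normalised natural-log median intensity across replicate spots of either probe orientation.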
On to “ATACTGTATGAAAGCACACATACTTATTACTAACAT [CACACA_site4164]”, for which the “gcPBM binding intensity (ln)” value came to 8.59 ± 0.18.

As to “CAAATAACAAAATAATGTACATTTATACTTTTTTTT [XGTACX_site943]”, the “gcPBM binding intensity (ln)” value was 7.49 ± 0.42. Under “TATACATATTTGTATTGTACATAAACTAAATCTTCA [XGTACX_site610]” stands 7.42 ± 0.49; under “TATCTCTACAAAATTTTATTCATTATTCATGTTATA [XGTACX_negctrl_site452]”, 8.09 ± 0.26. The same measure for “TTTGTTGTTGTGAAACGTACTCATAGGATGTTGTAT [XGTACX_site5716]”: 8.06 ± 0.42; for “ATATTTTCAATGTTCACACATACACAAAAAAAAAAA [CACACA_site6077]”: 8.16 ± 0.6; for “CTTTTGCCCAAAAAGGTACACACCACAATGTACATA [CACACA_site809]”: 8.04 ± 0.47. As to “GTTAATATACATAAACGTACAGAATTATTATGAGTT [XGTACX_site5185]”, the “gcPBM binding intensity (ln)” value worked out at 7.61 ± 0.49.

For “GCTTGGATATATTAATGTACTTATATATTATGTTGT [XGTACX_site3768]”, the “gcPBM binding intensity (ln)” value was found to be 7.92 ± 0.47. The same measure for “TAAATAATCGCATAATGTACATATAATTTTTTTTTT [XGTACX_site4880]”: 7.46 ± 0.27. Under “AAAATTTTTTTTATTTGTACACAATTCGATACATAA [XGTACX_site4804]” stands 8.04 ± 0.52; under “CCAATTCAAATATGCACACAAATTTGAAAACGATTA [CACACA_site3607]”, 8.9 ± 0.092; under “ATATAGTAAAGTTATACACACATGAATTTTCCCATA [CACACA_site7457]”, 7.68 ± 0.72.

Turning to “ATATTTTAATTATAAAGTACATAAAAATATATAAAC [XGTACX_site6705]”, the “gcPBM binding intensity (ln)” value was 7.92 ± 0.35. Turning to “TTTTTTATTGTGATACGTATATTATTTTATGATAAA [CACACA_negctrl_site1591]”, the “gcPBM binding intensity (ln)” value came out at 8.04 ± 0.6. As for “TAAAAATGTAAACACACACACATAAATATATTTTAT [CACACA_site5397]”, the “gcPBM binding intensity (ln)” value amounted to 7.84 ± 0.56.

On to “AAAGATGGAGTGATATGTACTGATATATTATTATAT [XGTACX_site6500]”, for which the “gcPBM binding intensity (ln)” value came to 7.62 ± 0.67. As for “AAGCATAAAGTATATAGTACATATATATATATATAT [XGTACX_site2945]”, the “gcPBM binding intensity (ln)” value is 9.45 ± 0.63. Turning to “ATCTTTCGTACATGTACACACAGAAAAAAAAAAAAA [CACACA_site2502]”, the “gcPBM binding intensity (ln)” value was found to be 8.51 ± 0.092. For “GTGTAATCATATAAGGGTACAAAAAATGTCTAACAA [XGTACX_site8122]”, the “gcPBM binding intensity (ln)” value amounted to 8.07 ± 0.72. Regarding “GTTCCCATAAATAAATGTACATATTATATATATATA [XGTACX_site3242]”, the “gcPBM binding intensity (ln)” value worked out at 9.15 ± 0.24. Turning to “ATTTTTTTTTTTTTTGAACACACATTATTAATTTTT [CACACA_site7990]”, the “gcPBM binding intensity (ln)” value amounted to 7.88 ± 0.5. Take “ATATATTTTATATAGTGTACTTTAATTTTTTTTTTT [XGTACX_site5550]”: the “gcPBM binding intensity (ln)” value was determined as 7.62 ± 0.42. Take “ATATATATATATGTTAGTACTTATATTGAAATGGTA [XGTACX_site1406]”: the “gcPBM binding intensity (ln)” value amounted to 9.19 ± 0.57.

Consider “ATAAATAAAACAAAATGTACAAATATTCATATATTC [XGTACX_site1307]”, for which the “gcPBM binding intensity (ln)” value was found to be 7.5 ± 0.62.

As for “TTTCATTTCACAGACACACACACACCCTATATTTCC [CACACA_site3906]”, the “gcPBM binding intensity (ln)” value worked out at 8.25 ± 0.18. “TTATTTACCTATTATAGTACATATAATTAATATAAT [XGTACX_site5724]”: the “gcPBM binding intensity (ln)” value is 7.92 ± 0.16. “TTTAAAAAAAATATGTGTACTTAATATTTTCATATA [XGTACX_site7421]”: the “gcPBM binding intensity (ln)” value came to 7.725 ± 0.021. The same measure for “TACATATAAATAATAACACACACCTAGGTACATGGA [CACACA_site838]”: 7.72 ± 0.43; for “AGAAAGGAGGAAATAAAAGGACTTCTTTTTTTATAT [CACACA_negctrl_site810]”: 7.52 ± 0.61; for “CATACACAGAAACACACACACATATATATATATATA [CACACA_site4519]”: 9.52 ± 0.37. Consider “ATTCATATCTACTTCACACACATTTGATCATTCAAA [CACACA_site7207]”, for which the “gcPBM binding intensity (ln)” value was 8.14 ± 0.59.

“AAAATCTATATTAACACACACACAAAAAAAAAAAAA [CACACA_site6738]”: the “gcPBM binding intensity (ln)” value was 8.21 ± 0.49. In the case of “ATAGTATTTTTTATTACACACAAATAAAAAGAAAAA [CACACA_site2087]”, the “gcPBM binding intensity (ln)” value came to 8.11 ± 0.057. In the case of “ATGAAACAGTAACATTGTACTTTTACAAAAAAATAA [XGTACX_site806]”, the “gcPBM binding intensity (ln)” value was found to be 7.7 ± 0.33.

As to AAAAATAAAATGATGGTGCACATAAAGTATGGTTAC, the “gcPBM binding intensity (ln)” value turned out to be 10.6 ± 0.14.

Turning to “ATTGAAAATTATTTACCTTCTTTGAAAGAACAAATG [CACACA_negctrl_site1736]”, the “gcPBM binding intensity (ln)” value worked out at 7.5 ± 0.49.

Consider “ATAAATAAATTTATACGTACACATAATATATATATA [XGTACX_site4634]”, for which the “gcPBM binding intensity (ln)” value worked out at 9.12 ± 0.13.

For “TAATTAATATATTTTTGTACTTATATATTTGCGTAT [XGTACX_site340]”, the “gcPBM binding intensity (ln)” value was determined as 7.46 ± 0.31. Take “AATCCACAAAGACACACACACACATATATATATATA [CACACA_site1269]”: the “gcPBM binding intensity (ln)” value was found to be 9.6 ± 0.31.

Regarding “TTATAATATATATGTGGTACTTATTTATTTATTTAT [XGTACX_site7572]”, the “gcPBM binding intensity (ln)” value was 7.5 ± 0.38.

Turning to “TTTTGTAATTTTGTATGTACACATTAAAGTAATATG [XGTACX_site2401]”, the “gcPBM binding intensity (ln)” value was 7.92 ± 0.39.

For “ATTTTTGATTTTAAAAGTACATAAGTATACTATTTA [XGTACX_site7162]”, the “gcPBM binding intensity (ln)” value is 7.61 ± 0.47. With “AAAATTCTTCGGGGGAGTACAAGGATATTCTACGTT [XGTACX_site3974]”, the “gcPBM binding intensity (ln)” value was 10.1 ± 0.52. As to “TAAAAAAAAAAAAAAAGTACCCATACTATATTACAT [XGTACX_site946]”, the “gcPBM binding intensity (ln)” value is 7.54 ± 0.42.
